Results from publication PMC12635257.
These are yes or no findings as the source states them, for the method shown. In cells and extracts the contact can be indirect. Some results given as binding are weak or reduced against the parent protein; the word gives no strength. For part of these data: Tags and fused reporters may be left off the sequences shown. Each block holds one molecule with its values, some of them ahead of it.

Chains of the proteins cited; added tags and fusions are not shown. Lines headed by an entry give the natural chain unless they say otherwise; changes in a name come on top. A line that says so, or that is headed by a name, gives the form on record, which may keep a tag or linker. Residues count along the entry.
UniProt Q16637: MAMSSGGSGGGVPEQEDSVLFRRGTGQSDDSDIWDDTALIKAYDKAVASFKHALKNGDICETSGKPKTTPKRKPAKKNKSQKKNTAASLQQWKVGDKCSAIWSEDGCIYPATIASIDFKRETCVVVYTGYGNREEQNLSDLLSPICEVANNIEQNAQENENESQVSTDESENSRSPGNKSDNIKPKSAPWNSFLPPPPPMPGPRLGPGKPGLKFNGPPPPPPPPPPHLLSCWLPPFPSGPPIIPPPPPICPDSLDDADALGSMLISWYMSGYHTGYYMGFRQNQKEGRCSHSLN
GST-tagged Tudor domain of SMN (wild type): residues 91-151 of Q16637
GST-tagged Tudor domain of SMN, methylarginine binding deficient E134K mutant (Q16637, form named): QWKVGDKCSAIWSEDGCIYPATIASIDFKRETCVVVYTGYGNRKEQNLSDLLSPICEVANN
UniProt Q9H7E2, residues 555-615: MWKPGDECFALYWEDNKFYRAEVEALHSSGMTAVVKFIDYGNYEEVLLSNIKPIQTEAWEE
UniProt Q86U44: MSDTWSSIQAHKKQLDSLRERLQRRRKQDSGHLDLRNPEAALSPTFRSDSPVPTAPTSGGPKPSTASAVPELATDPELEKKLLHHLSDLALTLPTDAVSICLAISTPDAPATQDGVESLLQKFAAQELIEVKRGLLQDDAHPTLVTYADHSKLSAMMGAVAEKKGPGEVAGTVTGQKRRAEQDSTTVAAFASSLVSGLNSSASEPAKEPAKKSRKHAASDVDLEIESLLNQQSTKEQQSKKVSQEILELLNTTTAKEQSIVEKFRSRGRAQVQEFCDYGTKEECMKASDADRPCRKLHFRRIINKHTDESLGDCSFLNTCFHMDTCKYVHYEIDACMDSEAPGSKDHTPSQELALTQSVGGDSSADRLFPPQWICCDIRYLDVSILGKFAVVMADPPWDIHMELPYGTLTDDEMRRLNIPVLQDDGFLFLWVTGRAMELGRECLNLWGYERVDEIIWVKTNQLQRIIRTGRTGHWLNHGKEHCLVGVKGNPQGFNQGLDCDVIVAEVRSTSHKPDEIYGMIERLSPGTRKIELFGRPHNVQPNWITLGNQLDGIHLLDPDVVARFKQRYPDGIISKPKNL

Experiments:
[1] = biological target: GST-tagged Tudor domain of SMN (wild type) (human) (UniProt Q16637); test: pull-down; purified GST-tagged Tudor domains incubated with HeLa cell lysates (endogenous proteins) overnight at 4 °C, Glutathione Sepharose beads 2 h; 20 mM Tris-HCl pH 7.4, 150 mM NaCl, 0.1% NP-40; western blot; also with lysates of siControl or siPRMT1 cells and of cells treated with MS023, EPZ015666 or both; only the target purified
[2] = biological target: GST-tagged Tudor domain of SMN, methylarginine binding deficient E134K mutant (human) (UniProt Q16637); test: as above
[3] = biological target: GST-tagged Tudor domain of TDRD3 (wild type) (UniProt Q9H7E2); test: as above
[4] = biological target: T1, Flag-tagged C-terminus truncated (1-400) METTL14 (human) (UniProt Q9HCE5); test: co-IP; HeLa cells transfected with Flag-tagged METTL14 (WT, RK, 1-400), METTL3 or WTAP; endogenous SMN detected by western blot; co-IP buffer 50 mM Tris-HCl pH 7.4, 150 mM NaCl, 15 mM MgCl2, 5 mM EDTA, 0.1% NP-40; also in siPRMT1 or siPRMT5 cells and in cells treated with MS023, EPZ015666 or both
T1 sequence: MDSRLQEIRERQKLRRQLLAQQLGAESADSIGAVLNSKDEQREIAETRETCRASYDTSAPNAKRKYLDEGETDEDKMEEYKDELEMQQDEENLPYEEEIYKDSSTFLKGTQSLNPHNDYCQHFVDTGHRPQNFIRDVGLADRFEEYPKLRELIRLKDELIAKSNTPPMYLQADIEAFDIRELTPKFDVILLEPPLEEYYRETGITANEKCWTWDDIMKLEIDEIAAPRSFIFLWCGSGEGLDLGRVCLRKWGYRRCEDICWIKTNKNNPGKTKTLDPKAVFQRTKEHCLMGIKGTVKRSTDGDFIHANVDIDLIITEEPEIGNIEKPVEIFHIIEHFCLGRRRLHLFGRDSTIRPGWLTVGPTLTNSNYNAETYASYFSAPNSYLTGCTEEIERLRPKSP

[5] = biological target: T2, METTL14 (endogenous) (human (endogenous in HeLa)) (UniProt Q9HCE5); test: co-IP; endogenous proteins; IP with IgG control, METTL14 or SMN antibodies, western blot for the other protein; co-IP buffer 50 mM Tris-HCl pH 7.4, 150 mM NaCl, 15 mM MgCl2, 5 mM EDTA, 0.1% NP-40
T2 sequence: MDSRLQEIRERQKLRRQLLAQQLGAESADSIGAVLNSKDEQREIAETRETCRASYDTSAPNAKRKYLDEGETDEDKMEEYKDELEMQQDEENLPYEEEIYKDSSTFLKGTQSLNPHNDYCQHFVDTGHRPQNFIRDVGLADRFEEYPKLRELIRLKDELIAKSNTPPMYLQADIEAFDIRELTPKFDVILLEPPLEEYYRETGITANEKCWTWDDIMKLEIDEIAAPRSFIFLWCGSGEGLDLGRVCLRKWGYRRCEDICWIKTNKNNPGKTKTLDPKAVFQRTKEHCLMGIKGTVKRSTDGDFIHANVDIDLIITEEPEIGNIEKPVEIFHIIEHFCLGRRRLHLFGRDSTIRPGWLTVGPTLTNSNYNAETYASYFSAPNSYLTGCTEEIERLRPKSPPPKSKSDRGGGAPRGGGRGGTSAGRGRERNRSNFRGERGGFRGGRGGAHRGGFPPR

[6] = biological target: GST-tagged Tudor domain of SMN (wild type) (human) (UniProt Q16637); test: pull-down; GST-SMN Tudor domain with cell lysates treated with RNase A (Appendix Fig. S1A); only the target purified
[7] = biological target: SMN (endogenous) (human (endogenous in HeLa)) (UniProt Q16637); test: co-IP; endogenous proteins; IP with IgG control, METTL14 or SMN antibodies, western blot for the other protein; co-IP buffer 50 mM Tris-HCl pH 7.4, 150 mM NaCl, 15 mM MgCl2, 5 mM EDTA, 0.1% NP-40
[8] = biological target: GST-tagged Tudor domain of SMN (wild type) (human) (UniProt Q16637); test: pull-down; Appendix Fig. S1C,D (legend not shown); SMA-derived mutants of the SMN Tudor domain, listed as pGEX-4T-1 (GST) constructs in the reagents table, against METTL14; only the target purified
[9] = biological target: Flag-tagged SMN, methylarginine binding deficient mutant (E134K) (human) (UniProt Q16637); test: co-IP; Flag-tagged WT or E134K SMN; METTL14 detected by western blot
[10] = biological target: Flag-tagged SMN, wild type (human) (UniProt Q16637); test: as above
[11] = biological target: GST-tagged Tudor domain of SMN (wild type) (human) (UniProt Q16637); test: pull-down; recombinant GST-SMN Tudor domain incubated with lysates of HeLa cells transfected with Flag-tagged METTL14 (FL, 1-400, 5RK, 8RK, 10RK, 13RK); 20 mM Tris-HCl pH 7.4, 150 mM NaCl, 0.1% NP-40, 4 °C; only the target purified

Molecule: METTL3 (endogenous) (from UniProt Q86U44 1-580)
binding [1]: binds
binding [2]: no binding
binding [3]: no binding

Molecule: SMN (endogenous) (from UniProt Q16637 1-294)
binding [4]: no binding
binding [5]: binds

B2: Flag-tagged METTL14 8RK (R429/431/435/438/442/445/450/456K) (protein, UniProt Q9HCE5 1-456)
chain: MDSRLQEIRERQKLRRQLLAQQLGAESADSIGAVLNSKDEQREIAETRETCRASYDTSAPNAKRKYLDEGETDEDKMEEYKDELEMQQDEENLPYEEEIYKDSSTFLKGTQSLNPHNDYCQHFVDTGHRPQNFIRDVGLADRFEEYPKLRELIRLKDELIAKSNTPPMYLQADIEAFDIRELTPKFDVILLEPPLEEYYRETGITANEKCWTWDDIMKLEIDEIAAPRSFIFLWCGSGEGLDLGRVCLRKWGYRRCEDICWIKTNKNNPGKTKTLDPKAVFQRTKEHCLMGIKGTVKRSTDGDFIHANVDIDLIITEEPEIGNIEKPVEIFHIIEHFCLGRRRLHLFGRDSTIRPGWLTVGPTLTNSNYNAETYASYFSAPNSYLTGCTEEIERLRPKSPPPKSKSDRGGGAPRGGGRGGTSAGRGREKNKSNFKGEKGGFKGGKGGAHKGGFPPK
binding [11]: no binding

B3: Flag-tagged METTL14 10RK (R425/427/429/431/435/438/442/445/450/456K) (protein, UniProt Q9HCE5 1-456)
chain: MDSRLQEIRERQKLRRQLLAQQLGAESADSIGAVLNSKDEQREIAETRETCRASYDTSAPNAKRKYLDEGETDEDKMEEYKDELEMQQDEENLPYEEEIYKDSSTFLKGTQSLNPHNDYCQHFVDTGHRPQNFIRDVGLADRFEEYPKLRELIRLKDELIAKSNTPPMYLQADIEAFDIRELTPKFDVILLEPPLEEYYRETGITANEKCWTWDDIMKLEIDEIAAPRSFIFLWCGSGEGLDLGRVCLRKWGYRRCEDICWIKTNKNNPGKTKTLDPKAVFQRTKEHCLMGIKGTVKRSTDGDFIHANVDIDLIITEEPEIGNIEKPVEIFHIIEHFCLGRRRLHLFGRDSTIRPGWLTVGPTLTNSNYNAETYASYFSAPNSYLTGCTEEIERLRPKSPPPKSKSDRGGGAPRGGGRGGTSAGKGKEKNKSNFKGEKGGFKGGKGGAHKGGFPPK
binding [11]: no binding

B6: Flag-tagged METTL14 5RK (R438/442/445/450/456K) (protein, UniProt Q9HCE5 1-456)
chain: MDSRLQEIRERQKLRRQLLAQQLGAESADSIGAVLNSKDEQREIAETRETCRASYDTSAPNAKRKYLDEGETDEDKMEEYKDELEMQQDEENLPYEEEIYKDSSTFLKGTQSLNPHNDYCQHFVDTGHRPQNFIRDVGLADRFEEYPKLRELIRLKDELIAKSNTPPMYLQADIEAFDIRELTPKFDVILLEPPLEEYYRETGITANEKCWTWDDIMKLEIDEIAAPRSFIFLWCGSGEGLDLGRVCLRKWGYRRCEDICWIKTNKNNPGKTKTLDPKAVFQRTKEHCLMGIKGTVKRSTDGDFIHANVDIDLIITEEPEIGNIEKPVEIFHIIEHFCLGRRRLHLFGRDSTIRPGWLTVGPTLTNSNYNAETYASYFSAPNSYLTGCTEEIERLRPKSPPPKSKSDRGGGAPRGGGRGGTSAGRGRERNRSNFRGEKGGFKGGKGGAHKGGFPPK
binding [11]: no binding

The next lines start with the values.

binding [6]: binds
binding [7]: binds
binding [8]: binds
binding [9]: no binding
binding [10]: binds
binding [1]: binds
binding [2]: no binding
binding [3]: no binding
B1: METTL14 (endogenous) (protein, UniProt Q9HCE5 1-456)
chain: MDSRLQEIRERQKLRRQLLAQQLGAESADSIGAVLNSKDEQREIAETRETCRASYDTSAPNAKRKYLDEGETDEDKMEEYKDELEMQQDEENLPYEEEIYKDSSTFLKGTQSLNPHNDYCQHFVDTGHRPQNFIRDVGLADRFEEYPKLRELIRLKDELIAKSNTPPMYLQADIEAFDIRELTPKFDVILLEPPLEEYYRETGITANEKCWTWDDIMKLEIDEIAAPRSFIFLWCGSGEGLDLGRVCLRKWGYRRCEDICWIKTNKNNPGKTKTLDPKAVFQRTKEHCLMGIKGTVKRSTDGDFIHANVDIDLIITEEPEIGNIEKPVEIFHIIEHFCLGRRRLHLFGRDSTIRPGWLTVGPTLTNSNYNAETYASYFSAPNSYLTGCTEEIERLRPKSPPPKSKSDRGGGAPRGGGRGGTSAGRGRERNRSNFRGERGGFRGGRGGAHRGGFPPR

binding [11]: no binding
B4: Flag-tagged METTL14 13RK (R408/414/418/425/427/429/431/435/438/442/445/450/456K) (protein, UniProt Q9HCE5 1-456)
chain: MDSRLQEIRERQKLRRQLLAQQLGAESADSIGAVLNSKDEQREIAETRETCRASYDTSAPNAKRKYLDEGETDEDKMEEYKDELEMQQDEENLPYEEEIYKDSSTFLKGTQSLNPHNDYCQHFVDTGHRPQNFIRDVGLADRFEEYPKLRELIRLKDELIAKSNTPPMYLQADIEAFDIRELTPKFDVILLEPPLEEYYRETGITANEKCWTWDDIMKLEIDEIAAPRSFIFLWCGSGEGLDLGRVCLRKWGYRRCEDICWIKTNKNNPGKTKTLDPKAVFQRTKEHCLMGIKGTVKRSTDGDFIHANVDIDLIITEEPEIGNIEKPVEIFHIIEHFCLGRRRLHLFGRDSTIRPGWLTVGPTLTNSNYNAETYASYFSAPNSYLTGCTEEIERLRPKSPPPKSKSDKGGGAPKGGGKGGTSAGKGKEKNKSNFKGEKGGFKGGKGGAHKGGFPPK

binding [11]: no binding
B5: Flag-tagged C-terminus truncated (1-400) METTL14 (domain or fragment, UniProt Q9HCE5 1-400)
chain: MDSRLQEIRERQKLRRQLLAQQLGAESADSIGAVLNSKDEQREIAETRETCRASYDTSAPNAKRKYLDEGETDEDKMEEYKDELEMQQDEENLPYEEEIYKDSSTFLKGTQSLNPHNDYCQHFVDTGHRPQNFIRDVGLADRFEEYPKLRELIRLKDELIAKSNTPPMYLQADIEAFDIRELTPKFDVILLEPPLEEYYRETGITANEKCWTWDDIMKLEIDEIAAPRSFIFLWCGSGEGLDLGRVCLRKWGYRRCEDICWIKTNKNNPGKTKTLDPKAVFQRTKEHCLMGIKGTVKRSTDGDFIHANVDIDLIITEEPEIGNIEKPVEIFHIIEHFCLGRRRLHLFGRDSTIRPGWLTVGPTLTNSNYNAETYASYFSAPNSYLTGCTEEIERLRPKSP
